Measurements as given in the supplement of paper PMC3334620.
Whole data set: some 33,000 sequences, median “E-score (-0.5 to 0.5)” near -0.012, cut for the highest 2% near 0.27. The list shows a part of the results.

target: T1, Vhr1 (UniProt P40522); experiment: PBM E-score (8-mer binding enrichment) (E-score (-0.5 to 0.5)); higher = stronger / more preferred TF binding; most listed sequences are background and not binding sites; conditions: protein concentration: 200 nM; construct: GST-full length
T1 sequence: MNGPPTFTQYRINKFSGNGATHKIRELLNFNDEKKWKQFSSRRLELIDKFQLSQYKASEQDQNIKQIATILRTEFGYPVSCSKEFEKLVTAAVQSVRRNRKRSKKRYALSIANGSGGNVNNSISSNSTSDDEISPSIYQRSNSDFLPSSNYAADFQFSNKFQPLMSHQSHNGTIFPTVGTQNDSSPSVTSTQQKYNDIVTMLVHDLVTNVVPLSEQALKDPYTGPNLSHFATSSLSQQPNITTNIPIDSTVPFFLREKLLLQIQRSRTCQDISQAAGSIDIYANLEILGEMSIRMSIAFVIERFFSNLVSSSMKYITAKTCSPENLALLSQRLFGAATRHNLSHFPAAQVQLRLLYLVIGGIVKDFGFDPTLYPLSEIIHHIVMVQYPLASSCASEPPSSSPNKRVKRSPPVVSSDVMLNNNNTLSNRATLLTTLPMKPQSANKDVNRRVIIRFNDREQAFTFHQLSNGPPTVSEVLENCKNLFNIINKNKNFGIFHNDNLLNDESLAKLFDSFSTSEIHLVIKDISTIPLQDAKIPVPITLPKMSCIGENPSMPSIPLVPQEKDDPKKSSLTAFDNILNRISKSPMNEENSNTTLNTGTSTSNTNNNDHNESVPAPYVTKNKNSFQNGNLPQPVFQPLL
How it was run: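 Yeast transcription factors, full-length or as DNA-binding domains, were expressed with a GST tag using PURExpress in vitro transcription/translation. At about 100-200 nM they were applied to universal all-10-mer Agilent arrays, double-stranded by primer extension on fresh or once-stripped slides. Fluorescent anti-GST detected bound protein, and masliner normalised the scans. E-scores for ungapped eight-base words, pooled with reverse complements, came from the Universal PBM Analysis Suite.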

Sequence | PBM E-score
TACCGGAA | -0.0783
CCCGACAA | 0.171
CTAGGACC | -0.201
AGTAGAGA | -0.0214
GAGCGGGC | -0.14
AGGATGAA | -0.0977
ATGGGCAC | 0.182
GCGCTCAC | 0.0509
ACAATGGG | 0.0286
AGTATAAA | 0.12
CGTCTGTA | -0.0348
CATTTGAC | -0.0227
CCGACGGA | -0.0154
GTAGGACA | -0.0445
CTTGAGCA | -0.0946
ACGGCAAT | 0.0757
GCGACTCA | 0.477
GGAACAAA | 0.0761
GAAAATTA | -0.106
CAGGCTCG | 0.0554
TCACGTGA | -0.00172
GTCCCAAA | -0.0966
CTAACTAC | 0.0663
CGTAGGAC | -0.0595
GACACAAA | 0.119

Sequence | PBM E-score
CCTTTCTA | -0.255
ACAAGAAA | -0.0651
ACCAGGAC | 0.0435
AGGCGAGA | -0.184
AGAATGAG | 0.094
CCACGTCG | 0.0204
AGAATCAC | 0.228
GCTTACTA | 0.0118
ACAACGGG | 0.199
CGACTAGA | -0.00513
CCAGGCTA | 0.0469
ACTCACCG | 0.309
CGGAATCC | 0.0628
CTCGTGCA | -0.0069
AATCCATA | 0.0257
CGCGATAC | 0.0526
ATGTCCGC | -0.115
CTGTCTGA | -0.0546
TCTGTCAA | -0.287
CTCGTATC | 0.00564
CGGTTTCC | -0.0822
CAACAGTC | -0.00634
AATCACGA | 0.159
CCCTAGGA | -0.0313
AGGTACAT | 0.0171

Sequence | PBM E-score
TTAGATAA | -0.128
CGTGCATA | 0.0761
ATAAGGTG | 0.0384
GACATCGC | -0.119
ATGGTCCA | -0.18
TCGGACAA | -0.0997
GAATTATC | -0.0428
CACAAAAC | -0.045
CCCCATCC | 0.0743
CCTACATC | -0.0958
GCTCATCA | 0.109
ACAGACAC | 0.236
CGTGCTTA | 0.0702
ACTATTCT | 0.0151
GCCATCCC | -0.00835
CTCGCGTC | 0.0582
CAATATAC | 0.102
AGTTGACA | 0.061
ACCGCATA | 0.149
CCGGCGTC | -0.155
ACACCGAT | 0.1
TGAGCAAA | 0.0847
AGAACGCA | -0.0188
TCGATCAA | -0.165
CAAGCTGC | 0.0434

Sequence | PBM E-score
CCAAGGAC | -0.149
CAATAACA | 0.17
AGTGCTAC | -0.0633
AGAATTGC | -0.0881
CGATGCCG | -0.0961
CCCATCCA | 0.227
CAAAGCAA | 0.0671
CGAGCGGC | 0.0132
GAGCTAAC | -0.267
AGTCAGTC | 0.214
AATTCCGG | -0.238
ACCCCAAT | -0.0588
GCCGGCCA | -0.136
ACTCAACC | 0.238
TATACTCA | 0.167
CCGAAGAA | -0.149
ACGAACCC | -0.119
GCCAAACC | -0.143
ATCCTATC | 0.0383
GTGAGACA | 0.219
ATAGGAAA | -0.0157
AGTCCTTC | -0.00782
ATAATTTC | -0.169
GCTCCTCA | -0.363
AGTCAGTA | 0.323

Sequence | PBM E-score
CAGGCGAC | 0.132
AGTGTGGG | 0.137
GGCGATTA | 0.0328
AGCAAAGG | 0.103
AATGCTAA | -0.153
ACGCAGAG | -0.0512
GGTTAAGA | -0.14
GGTGAAAC | -0.0767
TCAGATCA | -0.113
GTACGAGA | -0.1
ACATGACC | 0.187
AGTAAGAC | 0.0235
GAAACTCC | -0.211
CTTTTATC | -0.163
ATTTCGAA | -0.148
CTTGTCCC | -0.0264
GTAGTACA | 0.112
ATCACGAT | 0.077
ACGCTAAG | -0.277
GGACAGGA | -0.0587
ATCGAAGG | 0.0179
GTGTGAAA | 0.0762
AACTTGAG | -0.305
ATGTGCTA | 0.0865
GTCCCACA | 0.00909

Sequence | PBM E-score
AGTAACTC | 0.118
CATCCACA | 0.197
CGACCATC | 0.0193
CTATCTGA | -0.0105
GCCGTCGC | 0.0786
TAATCTGA | 0.0599
ACGCTTTA | -0.222
CGATTTCC | -0.0181
CAGGTCAC | -0.132
GGCAGATA | -0.0539
CCCACCGA | 0.251
ATTATATC | 0.0605
GAGCCCAA | 0.0463
CATGCACC | 0.0599
CTCGAGTC | 0.235
ATGGAGAC | 0.245
CGGTATTC | 0.122
AAAGTTAT | -0.0323
CCAGATAG | 0.0219
GGTATGAA | 0.0689
GGGTTGCA | 0.00766
AAGATTGC | -0.0621
CTGCGTGA | 0.13
AGCAAATA | -0.0751
GGCTCTAA | -0.0817

Sequence | PBM E-score
CAAGGGTC | -0.267
CGTAACGC | 0.00664
AGGTCAAG | -0.0718
CCCGCTTA | 0.0568
GCAGCTCC | -0.0608
CAGCCATG | 0.175
GTTGCGTA | 0.0499
CGAAATAC | 0.0866
AAGCTATA | -0.235
ATCTCGTA | -0.0788
AACGGAGT | 0.258
ACGTAAGC | -0.205
CGAGGTGC | -0.00096
GCTAGCTA | -0.277
GGTTAGAA | -0.0266
TACTAGAA | 0.0195
ACAGATTA | -0.104
AGGATGCC | -0.164
AGTAGAAC | -0.186
ACCTTAGA | -0.13
AGAAGCTG | -0.0119
AGCATTCG | -0.0588
